# Values joined by “and” are separate entries in the source; they are usually repeats but may differ in a detail not shown here. Identical values can stand only once. Among all 420,000 compounds or so, about 64,000 (15%) were called active. This list was built around the results that the source calls inconclusive (neither active nor inactive); the mix of calls is not that of the screen. The call rests on the fitted dose curve; in most records, active means well fitted inhibition curve with a large enough effect; inconclusive means small, poorly fitted or top-dose-only effect; inactive means flat fitted curve, though single readings scatter. Potencies beside an inconclusive call are fits to weak or partial responses and may not hold up.
# Test: qHTS for Inhibitors of human tyrosyl-DNA phosphodiesterase 1 (TDP1): qHTS in cells in absence of CPT; further: nearly all actives have a fitted effect of over 55% in size
# Settings: DT40 Tdp1-/- hTDP1 cells, no CPT, ATP luminescence, 48 h; activity change, negative = growth inhibition: at 46.2 µM (top of the series)
# Method in brief: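 Cells were dispensed at 400 per well, compounds added by pin tool, plates incubated ≥48 hr at 37 °C, then CellTiter-Glo added for 30 min at room temperature before luminescence reading. Line: DT40 Tdp1-/- complemented with hTDP1; camptothecin omitted.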
# On the % scale 0 is the no-effect control and ±100 the full control effect; potency means the concentration at half of the fitted maximal effect; tags describe the fitted curve by direction and shape.
SMILES,Potency,"activity change, negative = growth inhibition"
CC(C)Cn1c(SCc2cccc(F)c2)nc2ccsc2c1=O,active: 29.1 µM,
NNC(=O)c1ccc(Cn2cc(Br)cn2)o1,inactive,
CN(C(=O)c1cccc(NC(=O)Cc2ccc(NC(=O)C3CCCN(C(=O)C4CCCC4)C3)cc2)c1)C1CCCC1 (stereo not given),"inconclusive: 20.6 µM [inhibitor, single point]",
CC(C)(C)NC(=O)CN(c1cccc([N+](=O)[O-])c1)S(=O)(=O)c1ccccc1,inactive,
Cc1cc(Br)cn2c(Cc3ccsc3)c(-c3ccc(Cl)cc3)nc12,active: 18.4 µM,
Cc1ccc2c(=O)cc(C(=O)Nc3ccc(S(=O)(=O)N4CCCC(C)C4)cc3)oc2c1C (stereo not given),"inconclusive: 2.91 µM [inhibitor, partial curve, poor fit]",
N#CCCN(C(=O)Nc1ccc(Cl)c(Cl)c1)C1CCCCC1,"inconclusive: 29.1 µM [inhibitor, single point]",
O=C(Cc1ccc(Cl)cc1Cl)Nc1ccncc1,"inconclusive: 5.17 µM [inhibitor, partial curve]",
C=CCOc1ccc(/C=C2\SC(=Nc3cccnc3)NC2=O)cc1,"inconclusive: 29.1 µM [inhibitor, single point]",
O=C(CCn1c(=O)c2cccn2c2cccnc21)NCc1cccc(Br)c1,"inconclusive: 13 µM [inhibitor, partial curve]",
CC(=O)c1cc2c(cc1N/C(=N/S(=O)(=O)c1ccc(C)cc1)c1ccc(Cl)cc1)OCO2,inactive,
O=C(NNC(=S)NC(=O)c1ccco1)c1ccc(NC(=O)c2ccccc2)cc1,active: 20.6 µM,
Cc1cccc(OCCNc2ccc(C(F)(F)F)cc2[N+](=O)[O-])c1,inactive,
N#CC(C#N)=Cc1ccc(NC(=O)c2ccc(Br)cc2)cc1,active: 16.4 µM,
O=C(CSCc1cccc(CSCC(=O)Nc2ccccc2)n1)Nc1ccccc1,"inconclusive: 20.6 µM [inhibitor, single point]",
CC(C)(C)c1cc(C(=S)N2CCN(CCO)CC2)cc(C(C)(C)C)c1O,"inconclusive: 20 µM [inhibitor, single point]",
O=C(CSc1nccc(=O)[nH]1)Nc1ccc(F)c([N+](=O)[O-])c1,"inconclusive: 5.8 µM [inhibitor, single point]",
CC[C@H](C)[C@H](NC(=O)c1ccc(Cl)cc1)C(=O)OCC(=O)c1c(N)n(C)c(=O)n(C)c1=O,"inconclusive: 18.4 µM [inhibitor, single point]",
O=C(O)CCCn1cc(NC(=O)COc2ccccc2)cn1,inactive,
COc1ccc(Cc2nc3ccc(C(=O)NCCc4ccc(Cl)cc4)cc3o2)cc1,"inconclusive: 0.0046 µM [inhibitor, full curve, poor fit]",
COc1ccc(OC)c(C2CC(=O)Nc3ccc4ccccc4c32)c1 (stereo not given),"inconclusive: 29.1 µM [inhibitor, single point]",
CCCS(=O)(=O)c1ccc(COC(=O)c2ccc(NC(C)=O)cc2)cc1,inactive,
c1ccc(-c2nnc3sc(CN4CCc5ccccc54)cn23)cc1,"inconclusive: 29.1 µM [inhibitor, single point]",
Cc1ccc(CNc2c(C)c(C)nc3nncn23)cc1,active: 1.16 µM,

SMILES,Potency,"activity change, negative = growth inhibition"
Cc1ccccc1NC(=O)Nc1ccc2c(c1)OCO2,inactive,
COc1ccc(-c2cn3c(n2)sc2cc(C(=O)NCc4ccccc4)ccc23)cc1,"inconclusive: 16.4 µM [inhibitor, partial curve]",
S=c1[nH]c2ccccc2s1,"inconclusive: 33.5 µM [inhibitor, partial curve, poor fit] and inconclusive: 48.6 µM [inhibitor, single point] and inconclusive: 16.4 µM [inhibitor, partial curve, poor fit]",
O=C(NCCc1ccccc1)c1ccc2nc(-c3ccco3)c(-c3ccco3)nc2c1,active: 18.4 µM,
COC(=O)[C@@]12C[C@@H](CC(=O)N3CCSCC3)C(=O)N(Cc3ccco3)C1=CCC(C)(C)C2,,inconclusive: -31.5% [inhibitor]
CC(C)(C)c1ccc(CC(=O)N2CCC2(C)C(=O)Nc2ccc(F)cc2F)cc1 (stereo not given),active: 16.4 µM,
CCOc1ccccc1N1CC(c2nc3ccccc3n2CCCCOc2ccccc2)CC1=O (stereo not given),inactive,
O=C(Nc1ccc(Br)c(Cl)c1)C1CC1,"inconclusive: 29.1 µM [inhibitor, single point]",
Cc1ccc(Cn2ncc3c(N4CCN(CCc5ccccc5)CC4)ncnc32)cc1,"inconclusive: 20.6 µM [inhibitor, single point]",
COc1ccc(C2c3cc(OC)c(OC)cc3CC(=O)N2c2cccc(C#N)c2)cc1 (stereo not given),"inconclusive: 20.6 µM [inhibitor, single point]",
O=C(CCCC(=O)N(CC(=O)NC1CCCCC1)c1ccccc1F)Nc1ccccn1,,inconclusive: -31.9% [inhibitor]
O=C(N/N=C/c1cc(O)ccc1Br)c1cccnc1,active: 2.91 µM,
Cc1ccc(C)c(C(=O)N2CCC(c3nc4c(nnn4Cc4ccccc4)c(=O)[nH]3)CC2)c1,active: 8.2 µM,
COc1ccccc1C1=Nn2c(nc3sc(C(=O)Nc4ccccc4Cl)c(C)c3c2=O)SC1,"inconclusive: 8.2 µM [inhibitor, partial curve]",
CCNC(=O)C1(C)CCCN(C(=O)c2cccnc2Oc2ccccc2)C1 (stereo not given),inactive,
O=C(COC(=O)Cc1c[nH]c2ccccc12)Nc1c(Cl)cccc1C(F)(F)F,inactive,
CCOc1cccc(/C=N/NC(=O)c2cccnc2)c1O,"inconclusive: 18.4 µM [inhibitor, single point]",
O=C(OCCOc1ccc(Br)cc1)c1ccc(Cl)c(S(=O)(=O)N2CCOCC2)c1,"inconclusive: 25.9 µM [inhibitor, single point]",
O=C(/C=C/c1cccc(F)c1)NC1CCN(Cc2ccccc2)CC1,"inconclusive: 29.1 µM [inhibitor, single point]",
CC(=O)c1c(C)[nH]c(C(=O)COC(=O)CN2C(=O)C3CCCCC3C2=O)c1C (stereo not given),inactive,
Cc1nc2c(=O)[nH]c(=S)n(C)c2nc1C,"inconclusive: 23.1 µM [inhibitor, single point]",
COc1ccc(C(=O)Nc2cccc(NC(C)=O)c2)cc1,inactive,
COc1ccc(C2=CC(c3ccc(C)cc3)n3nnnc3N2)cc1 (stereo not given),inactive,
Cc1ccc(Cl)cc1N1CCN(C(=O)CN(C2CCCCC2)S(C)(=O)=O)CC1,active: 8.2 µM,

SMILES,Potency,"activity change, negative = growth inhibition"
Cc1ccc(S(=O)(=O)N2CCC(C(=O)N3CCCCCCC3)CC2)cc1C,"inconclusive: 25.9 µM [inhibitor, partial curve, poor fit]",
COc1ccc(-n2cc(-c3ccc(OC(F)F)cc3)[n+]3c2CCCCC3)cc1,active: 0.82 µM,
Cc1ccc(N(CC(=O)NCCc2ccccc2)C(=O)CCC(=O)Nc2cc(C)ccn2)cc1,"inconclusive: 29.1 µM [inhibitor, single point]",
CCN(CC#CCC1(O)c2ccccc2-c2ccccc21)CCO,inactive,
Cc1cc(C)c2c(c1)[C@@H]1C=CC[C@@H]1[C@H](c1ccc(S(=O)(=O)N3CCOCC3)cc1)N2,active: 18.4 µM,
CCN(C(=O)CN1C(=O)/C(=C/c2ccc(F)cc2)SC1=S)C1CCS(=O)(=O)C1 (stereo not given),"inconclusive: 18.4 µM [inhibitor, single point]",
O=C1CCC(=O)N1CCCCCc1nc(-c2ccccc2)no1,"inconclusive: 9.2 µM [inhibitor, partial curve]",
O=c1[nH]c(C2CCN(S(=O)(=O)c3ccccc3F)CC2)nc2c1nnn2Cc1ccc(OC(F)(F)F)cc1,"inconclusive: 29.1 µM [inhibitor, single point]",
CCCCCC(C)NC(=O)CN1C(=O)NC(C)(c2ccc3ccccc3c2)C1=O (stereo not given),"inconclusive: 20.6 µM [inhibitor, single point]",
CCOC(=O)c1ccc(N2C(=O)c3n[nH]c(C)c3C2c2ccc(OC)c(OC)c2)cc1 (stereo not given),"inconclusive: 20.6 µM [inhibitor, single point]",
NC(=O)Cn1nc([N+](=O)[O-])nc1Oc1ccc(Br)cc1,inactive,
CCCCN1C[C@H](CSC)[C@@H](CC(=O)Nc2ccc(OC)cc2)C1=O,"inconclusive: 13 µM [inhibitor, partial curve, poor fit]",
CCOC(=O)N1CCN(c2ncnc3c2[nH]c2ccc(OC)cc23)CC1,active: 23.1 µM,
CN1CCN(c2ccc(CNC(=O)c3ccc(-c4cnn(C)c4)c4ccoc34)cc2)CC1,"inconclusive: 29.1 µM [inhibitor, single point]",
CCc1nc2c(OCc3ccccc3)cccn2c1N(C)C(=O)Nc1ccccc1OC,"inconclusive: 29.1 µM [inhibitor, single point]",
COc1ccc(C)cc1NC(=O)CN1CCN(c2ccc(F)cc2)CC1,active: 23.1 µM,
Cc1ccccc1Oc1ccc(NC(=O)C2CC=CCC2C(=O)O)cc1 (stereo not given),active: 6.51 µM,
COc1ccc(-n2ccnc2SCC(=O)Nc2ccccc2)cc1,"inconclusive: 1.64 µM [inhibitor, partial curve, poor fit]",
COc1ccc(CNC(=O)[C@H](C)[C@@H]2C[C@@]2(C)[C@@H](NC(=O)OCc2ccccc2)c2ccccc2)cc1OC,active: 11.6 µM,
O=C1Nc2ccccc2/C1=C/c1cccnc1,"inconclusive: 29.1 µM [inhibitor, single point]",
CCOc1ccc(Sc2cc(C(=O)NCCc3ccc(OC)c(OC)c3)c3ccccc3n2)cc1,active: 5.8 µM,
COc1ccc(NCc2ccc(OC)c(Cn3ccnc3)c2)c(OC)c1,"inconclusive: 18.4 µM [inhibitor, partial curve]",
